Test results from ChEMBL document CHEMBL4888484, “Replenishing the malaria drug discovery pipeline: Screening and hit evaluation of the MMV Hit Generation Library 1 (HGL1) against asexual blood stage Plasmodium falciparum ,using a nano luciferase reporter read-out” (2022).
In all, about 150,000 compounds went through this assay and about 540 (0.36%) showed an effect of 50% or more. This is one part of the list.

System: Plasmodium falciparum
Test: Primary screen in NF54 nanoGlo assay, in single point, at 2uM, 72h; a lower Z score goes with more inhibition
Format: functional, Erythrocyte
Conditions: timepoint 72 hour

Q: With `O=C1C[C@@H](C(=O)Nc2ccc(Cl)cc2)Oc2ccc(F)cc21` as the compound, how does the “% Inhibition” value read?
A: The value was 34%.

Q: What about the Z score of the same compound?
A: The Z score was -3.89.

Q: How did the “% Inhibition” value turn out when `O=C(NC[C@H]1CCCN(C(=O)c2cccnc2O)C1)c1cscn1` was run?
A: Its value is -8%.

Q: What about the Z score of the same compound?
A: Its Z score is 1.41.

Q: With `COc1cccc(CCn2ccnc2-c2nc(C)cs2)c1` as the compound, how does the “% Inhibition” value read?
A: Its value is 3%.

Q: What about the Z score of the same compound?
A: Its Z score is -0.39.

Q: `Cn1nccc1COCC(=O)N1CCC[C@H]1Cn1cc(C2CC2)nn1` was tested. Which “% Inhibition” value did it give?
A: Its value is -2%.

Q: And the Z score?
A: The Z score was 0.29.

Q: Which results are given for `COCCNC(=O)[C@H]1CCCN(c2cnc3nccnc3c2)C1`?
A: % Inhibition: -5%; Z score: 0.87

Q: `CN1C(=O)CC(C(=O)Nc2ccncc2)C1c1ccc2c(c1)OCO2` (stereo not drawn) was tested. Which “% Inhibition” value did it give?
A: The value was -12%.

Q: What about the Z score of the same compound?
A: Its Z score is 1.23.

Q: `CC1CCC(NC(=O)C2(C)Cn3c(nc4ccccc43)C(=O)N2CC2CCCO2)CC1` (stereo not drawn) was tested. Which “% Inhibition” value did it give?
A: Its value is -5%.

Q: And the Z score?
A: The Z score was 0.5.

Q: Which results are given for `O=C1NC(=O)C2(CCN(C(=O)C3CC3C3CCCCC3)C2)N1` (stereo not drawn)?
A: % Inhibition: -4%; Z score: 0.78

Q: What does the source list for `Cc1ccc(-c2noc(C3CC4C=CC3C4)n2)cn1` (stereo not drawn)?
A: % Inhibition: -12%; Z score: 2.12

Q: Which results are given for `FC(F)(F)c1ccnc(N[C@H]2CCCN(CCN3CCOCC3)C2)c1`?
A: % Inhibition: -3%; Z score: 0.49

Q: How did the “% Inhibition” value turn out when `COc1ccc2c(c1)CCC[C@@]2(O)CNS(=O)(=O)c1cccnc1` was run?
A: The value was -20%.

Q: What about the Z score of the same compound?
A: Its Z score is 2.62.

Q: How did the “% Inhibition” value turn out when `C=CCNS(=O)(=O)c1ccc(C)c(C)c1` was run?
A: Its value is -13%.

Q: What about the Z score of the same compound?
A: The Z score was 1.76.

Q: With `Cc1n[nH]c([C@@H]2CN(C(=O)C3CCCC3)CCCN2Cc2ccccc2)n1` as the compound, how does the “% Inhibition” value read?
A: Its value is -10%.

Q: What about the Z score of the same compound?
A: Its Z score is 1.87.

Q: With `C#CC(CCC)NC(=O)N1CC(C)OC(C)(C)C1` (stereo not drawn) as the compound, how does the “% Inhibition” value read?
A: Its value is 2%.

Q: What about the Z score of the same compound?
A: Its Z score is -0.27.

Q: How did the “% Inhibition” value turn out when `COc1ccc(N(Cc2cc(CN3CCOCC3)cs2)S(=O)(=O)c2cc(F)ccc2C)cc1` was run?
A: The value was -9%.

Q: And the Z score?
A: Its Z score is 1.15.

Q: `Cc1cc(=O)c(OCC(=O)Nc2nccs2)cn1C` was tested. Which “% Inhibition” value did it give?
A: Its value is -1%.

Q: And the Z score?
A: Its Z score is 0.09.

Q: Which “% Inhibition” value does the source give for `C[C@@H]1CN(C[C@@H]2CN(C(=O)c3ccc4[nH]nnc4c3)C[C@@H]2CO)C[C@H](C)O1` here?
A: The value was -1%.

Q: And the Z score?
A: The Z score was 0.21.

Q: For `CCC1CCN(c2ccc(C(=O)N(C)C)nn2)CC1`, which “% Inhibition” value is on record?
A: The value was -3%.

Q: And the Z score?
A: The Z score was 0.48.

Q: Which “% Inhibition” value does the source give for `CC(C)(C)[C@H](NC(=O)c1nccnc1N)C(F)(F)F` here?
A: The value was -3%.

Q: And the Z score?
A: The Z score was 0.31.

Q: For `Cc1ccc(-c2nnc([C@H](C)Nc3ccc4c(c3)OCO4)o2)cc1`, which “% Inhibition” value is on record?
A: Its value is -12%.

Q: What about the Z score of the same compound?
A: The Z score was 1.65.

Q: How did the “% Inhibition” value turn out when `Cc1ccc(S(=O)(=O)NCCNc2nc(C3CC3)nc3c2c(C)nn3-c2ccccc2)cc1` was run?
A: The value was 0%.

Q: What about the Z score of the same compound?
A: The Z score was 0.05.

Q: `c1c[nH]c(-c2nccn2-c2ccc3ncsc3c2)n1` was tested. Which “% Inhibition” value did it give?
A: Its value is -1%.

Q: What about the Z score of the same compound?
A: Its Z score is 0.1.

Q: Which results are given for `Cc1ccccc1CC(=O)n1nc(C)c(Cl)c1C`?
A: % Inhibition: -1%; Z score: 0.15

Q: With `CC(C)(C)OC(=O)N1CCN(c2cccnc2)C(=O)C1` as the compound, how does the “% Inhibition” value read?
A: Its value is -18%.

Q: And the Z score?
A: Its Z score is 2.12.

Q: For `CC(C)c1cc(CNC(=O)Cc2cccnc2)no1`, which “% Inhibition” value is on record?
A: Its value is -4%.

Q: What about the Z score of the same compound?
A: The Z score was 0.59.

Q: Which results are given for `Cc1cc(C)cc(S(=O)(=O)NCc2nc3cccnc3n2C2CCCC2)c1`?
A: % Inhibition: 4%; Z score: -0.68

Q: Which “% Inhibition” value does the source give for `O=C(O)CCC1CCCN(C2CCN(c3ccccc3Cl)C2=O)C1` (stereo not drawn) here?
A: The value was 0%.

Q: And the Z score?
A: Its Z score is 0.02.

Q: `COC[C@H]1CCCN1C(=O)c1cc(-c2ccco2)nc2c(Cl)cccc12` was tested. Which “% Inhibition” value did it give?
A: The value was -18%.

Q: What about the Z score of the same compound?
A: Its Z score is 1.89.

Q: For `CS(=O)(=O)N1C2CCC(C2)C1C(=O)Nc1nccs1` (stereo not drawn), which “% Inhibition” value is on record?
A: The value was -8%.

Q: And the Z score?
A: The Z score was 1.27.

Q: With `CCN(CCS(C)(=O)=O)[C@@H](C)c1nnc(-c2ccc(C)cc2)o1` as the compound, how does the “% Inhibition” value read?
A: The value was -10%.

Q: What about the Z score of the same compound?
A: Its Z score is 1.02.

Q: Which results are given for `Cc1cc2c(cc1-c1ccnc(N3CCN(c4ccccc4)CC3)n1)[C@@H](C)CC(C)(C)N2`?
A: % Inhibition: 23%; Z score: -3.06

Q: Which results are given for `c1cc(CN2CCC[C@H](CN3CCCC3)C2)co1`?
A: % Inhibition: -3%; Z score: 0.59

Q: With `Cc1cnn(CCC(=O)N[C@@H](C)Cc2ncccc2C)c1` as the compound, how does the “% Inhibition” value read?
A: The value was -11%.

Q: And the Z score?
A: Its Z score is 1.1.

Q: What does the source list for `Cc1cccc(NC(=O)Cn2nc(COc3ccccc3)oc2=S)c1`?
A: % Inhibition: -40%; Z score: 4.68

Q: Which “% Inhibition” value does the source give for `Cc1nc(Cn2ncc(N(C)Cc3ccccc3)cc2=O)co1` here?
A: The value was 7%.

Q: And the Z score?
A: The Z score was -0.67.

Q: How did the “% Inhibition” value turn out when `O=C1CCN(C(=O)c2ccc(-c3cccc(F)c3)cc2)CCN1Cc1ccccn1` was run?
A: Its value is -2%.

Q: And the Z score?
A: Its Z score is 0.46.

Q: For `O=C(CN1c2ccccc2-c2ccccc2S1(=O)=O)N1CCCCC1`, which “% Inhibition” value is on record?
A: Its value is 0%.

Q: What about the Z score of the same compound?
A: The Z score was 0.

Q: How did the “% Inhibition” value turn out when `O=C(Cc1ccon1)Nc1ccc(Oc2ccc(F)cc2F)nc1` was run?
A: Its value is -13%.

Q: And the Z score?
A: Its Z score is 1.79.

Q: `CC(C)NC(=O)CCc1nnc2ccc(N3CCC4(CC3)OCCO4)nn12` was tested. Which “% Inhibition” value did it give?
A: Its value is -19%.

Q: And the Z score?
A: Its Z score is 2.56.

Q: `CCc1nsc(N2CCCC3CC32)n1` (stereo not drawn) was tested. Which “% Inhibition” value did it give?
A: Its value is 0%.

Q: And the Z score?
A: Its Z score is 0.04.

Q: Which results are given for `COc1cc(CCNC(=O)N2CCOC(C(F)(F)F)C2C)ccn1` (stereo not drawn)?
A: % Inhibition: -10%; Z score: 1.39

Q: How did the “% Inhibition” value turn out when `CCCc1cc(N(CC(=O)O)CC(C)C)nc(C)n1` was run?
A: The value was -3%.

Q: What about the Z score of the same compound?
A: The Z score was 0.46.

Q: For `C[C@@H](Cn1cccn1)N1CCC2(CC1)CN(CCOc1ccccc1)C(=O)O2`, which “% Inhibition” value is on record?
A: The value was -12%.

Q: What about the Z score of the same compound?
A: The Z score was 1.51.

Q: Which “% Inhibition” value does the source give for `Cc1cc(C)nc(CNC(=O)N2CCC[C@@H]2C(N)=O)n1` here?
A: The value was -2%.

Q: And the Z score?
A: The Z score was 0.47.

Q: With `CCNc1nc(C)c(C(=O)N[C@@H]2[C@H]3CCO[C@H]3[C@H]2Cc2ccccc2)s1` as the compound, how does the “% Inhibition” value read?
A: The value was 3%.

Q: What about the Z score of the same compound?
A: The Z score was -0.38.

Q: Which results are given for `O=C(c1cc(-c2cccnc2)nc2ccccc12)N1CCN(Cc2ccc3c(c2)OCO3)CC1`?
A: % Inhibition: 2%; Z score: -0.33

Q: Which results are given for `COCCn1cncc1Cn1cnc(-c2ccccc2)c1-c1cccc2nonc12`?
A: % Inhibition: 10%; Z score: -1.24

Q: Which results are given for `O=C(NCCCN1CCCCC1)c1ccc(CN2C(=O)CCn3nc(-c4cccc(Cl)c4)cc32)cc1`?
A: % Inhibition: 14%; Z score: -1.57

Q: Which “% Inhibition” value does the source give for `CCc1ncnc(O[C@H]2CCN(S(=O)(=O)c3ccc(F)cc3C)C2)c1F` here?
A: Its value is 5%.

Q: What about the Z score of the same compound?
A: The Z score was -0.74.

Q: Which “% Inhibition” value does the source give for `Cc1c(Br)c(C(F)F)nn1CC(=O)NCCCN1CCOCC1` here?
A: The value was 28%.

Q: What about the Z score of the same compound?
A: Its Z score is -3.83.

Q: What does the source list for `COc1ccnc(NC(=O)c2ccnn2C(C)C)c1C#N`?
A: % Inhibition: -13%; Z score: 2.29

Q: Which “% Inhibition” value does the source give for `Cc1c(-c2nnc(C(=O)NCc3ccc(Cl)cc3)o2)oc2ccccc12` here?
A: The value was 18%.

Q: And the Z score?
A: Its Z score is -2.12.

Q: With `CCC(Cc1ccc(F)cc1)NC(=O)N1C[C@@H](c2nnc(C)o2)O[C@@H](C)C1` (stereo partly drawn) as the compound, how does the “% Inhibition” value read?
A: The value was -13%.

Q: What about the Z score of the same compound?
A: Its Z score is 1.71.

Q: How did the “% Inhibition” value turn out when `Cc1ccc(C)c(-c2cc(C(=O)N3CC(F)(F)C[C@H]3COc3ccncc3)[nH]n2)c1` was run?
A: The value was -6%.

Q: What about the Z score of the same compound?
A: The Z score was 1.03.
